# Measured values taken from PubChem BioAssay AID588342 (National Center for Advancing Translational Sciences (NCATS), 2011).
# Out of some 360,000 compounds screened, about 25,000 (6.9%) were called active. The inconclusive results got no clear call from the source; some entries with a clear call stand among them for comparison. The call rests on the fitted dose curve; in most records, active means well fitted inhibition curve with a large enough effect; inconclusive means small, poorly fitted or top-dose-only effect; inactive means flat fitted curve, though single readings scatter. Where the call is inconclusive, the potency comes from a doubtful curve fit.
# Target: Luciferin 4-monooxygenase (Photinus pyralis) (UniProt P08659)
# Test: qHTS profiling assay for firefly luciferase inhibitor/activator using purifed enzyme and Km concentrations of substrates (counterscreen for miR-21 project); further: nearly all actives have a fitted effect of over 55% in size;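 on activity change, negative = inhibition: plate controls were vehicle for no effect and reference inhibitor for full effect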
# Details: purified FLuc, luminescence inhibition; series mostly up to 57.5 µM; activity change, negative = inhibition: at the top concentration
# Procedure, shortened: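 Purified P. pyralis luciferase, 10 nM final, with Km-level 10 uM D-luciferin and 10 uM ATP in 50 mM Tris acetate pH 7.5, 10 mM Mg acetate, 0.01% Tween-20, 0.05% BSA; 6-point qHTS titration about 60 µM downward; luminescence read.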
# Potency means the concentration at half of the fitted maximal effect; tags describe the fitted curve by direction and shape.
# Sequence of UniProt P08659 (P08659 whole entry, looked up): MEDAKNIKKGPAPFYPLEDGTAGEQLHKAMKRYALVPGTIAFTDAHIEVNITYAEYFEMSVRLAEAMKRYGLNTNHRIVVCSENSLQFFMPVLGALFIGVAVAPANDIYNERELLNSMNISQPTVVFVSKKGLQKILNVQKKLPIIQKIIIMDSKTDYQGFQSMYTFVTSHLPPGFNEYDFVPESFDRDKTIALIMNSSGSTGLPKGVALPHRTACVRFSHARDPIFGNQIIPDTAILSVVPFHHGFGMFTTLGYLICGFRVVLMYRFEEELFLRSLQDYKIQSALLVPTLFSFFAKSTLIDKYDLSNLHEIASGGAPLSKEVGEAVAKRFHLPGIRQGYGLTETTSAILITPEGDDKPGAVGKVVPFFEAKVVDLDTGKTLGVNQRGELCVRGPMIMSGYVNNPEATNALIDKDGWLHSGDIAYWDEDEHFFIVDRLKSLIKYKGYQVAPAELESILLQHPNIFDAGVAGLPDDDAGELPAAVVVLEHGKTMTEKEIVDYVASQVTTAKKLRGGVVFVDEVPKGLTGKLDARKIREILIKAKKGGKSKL
SMILES,Potency,"activity change, negative = inhibition"
CCOc1ccc(-c2nnn(CC(=O)c3ccc4c(c3)OCCO4)n2)cc1OCC,"inconclusive: 21.3 µM [inhibitor, single point]",
COc1ccc(OCC(=O)O/N=C(\N)c2ccc(OC)cc2)cc1,"inconclusive: 21.3 µM [inhibitor, partial curve, poor fit]",
O=C1COc2ccc(C(=O)/C=C/c3ccccc3)cc2N1,"inconclusive: 2.69 µM [inhibitor, full curve, poor fit]",
O=C(N/N=C/c1ccoc1)c1ccc([N+](=O)[O-])cc1,active: 21.3 µM,
Brc1ccc2c(c1)C(c1cccnc1)=NNC(c1cccs1)=N2,"inconclusive: 21.3 µM [inhibitor, single point]",
CC1CCc2c(sc3nc(-c4cc5ccccc5oc4=O)nc(Cl)c23)C1 (stereo not given),active: 2.39 µM,
O=C(CCC(=O)OCc1cccc(C(=O)Oc2ccccc2)c1)Nc1cccc2ccccc12,"inconclusive: 21.3 µM [inhibitor, partial curve, poor fit]",
CC(=O)Oc1ccc2c(=O)c(Oc3ccccc3)coc2c1OC(C)=O,,inactive: -21.4%
CC(C)c1nn2c(=O)cc(COC(=O)c3cccc(NC(=O)c4ccccc4F)c3)nc2s1,,inactive: -9.88%
CC(=O)c1ccccc1OC(=O)COc1ccc([N+](=O)[O-])cc1,"inconclusive: 16.9 µM [inhibitor, partial curve, poor fit]",
Cc1ccc(OCC(=O)N2CCOCC2)cc1C,"inconclusive: 26.9 µM [inhibitor, partial curve, poor fit]",
O=C(Nc1ccccc1)c1cc2ccc3ccccc3c2s1,active: 5.36 µM,
COc1ccc(-n2c(C)cc(C(=O)COC(=O)c3cc(OC)c(OC)cc3NC(=O)c3cccs3)c2C)cc1,,inactive: -2.76%
Cc1ccc(NC(=S)NCCc2ccccc2)nc1,active: 16.9 µM,
COc1cccc(/C=C2\CCC(C3CCCC3)C2=O)c1 (stereo not given),active: 1.69 µM,
O=C(NC1CC1)c1cc2c(F)cccc2s1,"inconclusive: 23.9 µM [inhibitor, single point]",
Cc1ccc(C(=O)Nc2ccc(C(=O)N/N=C/c3ccc(C)o3)cc2)cc1,"inconclusive: 13.5 µM [inhibitor, partial curve, poor fit]",
Cc1cc(C(=O)COC(=O)c2ccc(N)c([N+](=O)[O-])c2)c(C)n1Cc1ccc2c(c1)OCO2,"inconclusive: 3.01 µM [inhibitor, full curve]",
Cc1ccc(C)c(-c2csc(-c3cccnc3)n2)c1,"inconclusive: 15.1 µM [inhibitor, partial curve, poor fit]",
COc1ccc(CCNC(=O)c2cc(-c3ccccc3)c(N3CCOCC3)s2)c(OC)c1OC,"inconclusive: 16.9 µM [inhibitor, partial curve]",
O=C(NCCN1CCOCC1)C1CCN(c2ncnc3c2sc2cccc(F)c23)CC1,"inconclusive: 21.3 µM [inhibitor, partial curve, poor fit]",
COc1cccc(NC(=O)c2oc3ccccc3c2NC(C)=O)c1,"inconclusive: 15.1 µM [inhibitor, partial curve]",
Cc1ccccc1OCc1nnc2c3cnn(C)c3ncn12,active: 21.3 µM,
CC(=O)C1=C(C)NC(SCC(=O)c2ccccc2)=C(C#N)C1c1ccco1 (stereo not given),"inconclusive: 19 µM [inhibitor, single point]",
CNc1ncc(C(=O)c2ccc(-c3ccccc3)cc2)s1,active: 3.01 µM,

SMILES,Potency,"activity change, negative = inhibition"
Cc1scc(C(=O)N/N=C/c2ccsc2)c1C,active: 2.13 µM,
COC(=O)c1cccc(NC(=O)c2cc3sccc3n2C)c1,active: 15.1 µM,
Cc1ccc(NC(=O)c2ccc3c(c2)NC(=O)CS3)nc1,"inconclusive: 12 µM [inhibitor, partial curve]",
S=C(NCc1ccc2c(c1)OCO2)Nc1ccc2nsnc2c1,"inconclusive: 37.9 µM [inhibitor, partial curve, poor fit]",
O=C(CCNS(=O)(=O)c1cccc2nonc12)Nc1ccc(F)cc1,,inactive: 0.586%
COC(=O)c1cccc(Nc2c(-c3ccc(O)cc3)nc3nc[nH]n23)c1,"inconclusive: 37.9 µM [inhibitor, partial curve, poor fit]",
Cc1cnc(C(=O)Nc2nccs2)cn1,"inconclusive: 26.9 µM [inhibitor, partial curve]",
O=C(Nc1ccc2c(c1)OCO2)c1ccc(=O)[nH]n1,"inconclusive: 21.3 µM [inhibitor, single point]",
O=C(CN1C(=O)COc2ccc(Cl)cc21)Nc1ccccn1,,inactive: -0.424%
CC(Sc1ncnc2c1cnn2-c1ccccc1)C(=O)NCC1CCCO1 (stereo not given),"inconclusive: 37.9 µM [inhibitor, single point]",
COc1cc(/C=N/OCC(=O)NC2CCCCC2C)ccc1OCc1ccc(Cl)cc1 (stereo not given),active: 6.75 µM,
Cc1ccc(-n2c(N)c(C(=O)N3CCCCC3)sc2=S)cc1,"inconclusive: 37.9 µM [inhibitor, single point]",
CCNc1ccc2noc3c2c1C(=O)c1ccccc1-3,"inconclusive: 13.5 µM [inhibitor, partial curve]",
CCOc1ccc2[nH]c(C(=O)N/N=C/c3ccc(OC)cc3)cc2c1,active: 10.7 µM,
O=C(Cc1c[nH]c2ccccc12)NCc1ccccc1F,"inconclusive: 21.3 µM [inhibitor, single point]",
Cc1ccccc1OCC(=O)N/N=C/c1cn(C)c2ccccc12,active: 15.1 µM,
Cc1oc(-c2ccc(-c3ccccc3)cc2)nc1CN1CCN(CC(=O)N(C)C)CC1,active: 5.36 µM,
COc1cc(/C=N/Nc2ccc(Cl)c(C(=O)O)c2)ccc1OC(=O)c1cccs1,active: 23.9 µM,
O=C(NCc1ccccc1Cl)c1ccccc1Oc1ccccc1,,inactive: -6.67%
O=C(CSc1nnc(NC(=O)c2ccco2)s1)Nc1ccc(F)cc1,active: 15.1 µM,
CCC(C)Sc1nc2c(cnn2-c2ccc(C)cc2)c(=O)[nH]1 (stereo not given),,inactive: 1.31%
CCCN(CC(=O)Nc1ccccc1C)C(=O)c1ccc(=O)n(Cc2ccccc2)n1,,inactive: 3.04%
CC(C)(CC(=O)O)Cc1nc(-c2ccc(Cl)cc2)no1,active: 26.9 µM,
Cc1ccc(N2C(=O)CC(NCc3ccc4c(c3)OCO4)C2=O)cc1Cl (stereo not given),,inactive: -13.1%
Cc1csc(SCC(=O)Nc2ccc3c(c2)OCCO3)n1,active: 21.3 µM,

SMILES,Potency,"activity change, negative = inhibition"
Cc1ccc(-c2n[nH]c(=S)n2/N=C/c2ccncc2)cc1,,inactive: -13%
CCN(CC)CCNC(=O)c1sc2nc(C)cc(C)c2c1-n1cccc1,,inactive: -6.37%
CC1CCCN(C2=NC(=O)/C(=C/c3cn(-c4ccccc4)nc3-c3cccc(S(=O)(=O)N(C)C)c3)S2)C1 (stereo not given),"inconclusive: 3.79 µM [inhibitor, full curve]",
CCc1ccc(S(=O)(=O)ON2C(=O)c3ccccc3C2=O)cc1,"inconclusive: 37.9 µM [inhibitor, partial curve, poor fit]",
Cc1cc([N+](=O)[O-])c2c(c1C)C1C=CCC1C(c1ccccn1)N2 (stereo not given),"inconclusive: 37.9 µM [inhibitor, partial curve, poor fit]",
O=C(Nc1ccc(Br)cc1F)c1ccc2nc(CCc3ccccc3)oc2c1,"inconclusive: 19 µM [inhibitor, partial curve, poor fit]",
C/C(=N\NC(=O)CO/N=C(\C)c1cccs1)c1ccc(N)cc1,"inconclusive: 21.3 µM [inhibitor, single point]",
CCOc1cccc2cc(C(=O)NCc3ccc(Cl)cc3)c(=N)oc12,"inconclusive: 23.9 µM [inhibitor, partial curve]",
CC(=O)c1sc(NC(=O)c2ccc(Cn3cc(Br)cn3)o2)nc1C,"inconclusive: 37.9 µM [inhibitor, partial curve, poor fit]",
CCCCOc1ccc(S(=O)(=O)Nc2ccc(-c3ccc(N4CCCCC4)nn3)cc2)cc1,"inconclusive: 6.75 µM [inhibitor, partial curve, poor fit]",
CCC(=O)Nc1cc(-c2nc3cc(C)cc(C)c3o2)ccc1C,active: 1.69 µM,
Cc1cccc2c1-c1sc(C(=O)Nc3ccccc3C(N)=O)cc1CO2,"inconclusive: 0.269 µM [inhibitor, full curve]",
COc1cccc(C(=O)COc2cccc(NC(=O)c3cccc([N+](=O)[O-])c3)c2)c1,"inconclusive: 10.7 µM [inhibitor, partial curve]",
CCC/C(=N/NC(=O)c1ccc2c(c1)OCO2)c1cccs1,active: 16.9 µM,
CCc1cccc(N=c2c([N+](=O)[O-])nn(-c3ccc4c(c3)OCCO4)n2O)c1,"inconclusive: 33.8 µM [inhibitor, single point]",
COC(=O)C1=NN(C(=O)c2cccc(Br)c2)C(O)(c2ccc(Cl)cc2)C1 (stereo not given),active: 10.7 µM,
COc1ccc(NC(=O)COc2cccc(-n3cnnn3)c2)cc1,"inconclusive: 30.1 µM [inhibitor, single point]",
COc1ccc(/C=N/Nc2nccnc2Cl)cc1,active: 2.69 µM,
CCc1cc(=O)n2c([nH]c3ccccc32)c1C#N,active: 19 µM,
CCN(CC)c1nn2c(=O)c(C(=O)NCc3cccc(OC)c3OC)cnc2s1,,inactive: 3.2%
Cc1ccc(C2(C)NC(=O)N(CC(=O)N3CCN(C(=O)c4cccs4)CC3)C2=O)cc1 (stereo not given),,inactive: -5.89%
COc1cccc(NC(=O)CSc2cc(C)[nH]c(=O)n2)c1,,inactive: 1.93%
CC(NC(=O)C1CC1)c1ccc(-c2ccccc2)cc1 (stereo not given),,inactive: -0.877%
CCc1nnc(NC(=O)c2ccc3ncsc3c2)s1,active: 23.9 µM,
CC1(C)CC(NC(=O)c2cc(COc3cccc(C(F)(F)F)c3)on2)CCO1 (stereo not given),"inconclusive: 26.9 µM [inhibitor, partial curve]",
